Measured values from the supplement of paper PMC11417369.
± gives the standard deviation of the averaged measurements. This is one part of the list.

Test system: PfAP2-I AP2 domain 3 (GST-tagged)
Assay: gcPBM binding intensity (ln(normalized median fluorescence intensity)); higher = stronger DNA binding
Method in brief: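 Binding intensity values are the highest Masliner-normalised natural-log median intensity among replicate spots of either probe orientation. The binding step lasted 1 h in 1× PBS with 1% milk, 0.2 mg/ml BSA, 0.5% salmon testes DNA and 0.03% Triton X-100, using GST-tagged P. falciparum DNA-binding domains expressed in E. coli on an Agilent 4 × 180k array of primer-extended double-stranded 36-bp intergenic genomic probes plus negative controls. Alexa488 anti-GST antibody and a 488 nm scan detected bound protein.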

Row | Sequence | gcPBM binding intensity (ln)
1 | AGTGCATAATATTTATGTACGTATCACATATATTTT [XGTACX_site5166] | 11.3 ± 0.83
2 | AATAAATGTCTGTTAATGCACACGATATGTCTATAT [CACACA_site2351] | 10.8 ± 0.57
3 | TTTCTTTATTTATAATAATTTTTTATTAAAAATAGA [CACACA_negctrl_site1610] | 7.31 ± 0.37
4 | TTCATTAAAACGAATACACACATAAATATATAAAAG [CACACA_site4824] | 7.93 ± 0.33
5 | AAATATATATATATTACACACTATATATTTATTTAT [CACACA_site681] | 7.72 ± 0.45
6 | TGTATACCTTAATATACACACATACATATATATATA [CACACA_site8370] | 9.27 ± 0.35
7 | GGATATATTATATGTACACACATATATAACGGATAT [CACACA_site1309] | 8.03 ± 0.52
8 | CAACAAAAGAAACACACACACACAAACACAAAAAAA [CACACA_site3389] | 8 ± 0.37
9 | ATATATAAATATAGCATACACACAAAAAAATAAAAT [CACACA_site2332] | 7.84 ± 0.57
10 | ATATACATATTTTTGACACACATTAGGAAAATATAT [CACACA_site4123] | 7.79 ± 0.57
11 | ATGTAATAAATACTACGTACATATATATGTGTTAAT [XGTACX_site3265] | 7.85 ± 0.47
12 | TATTATTTATATGATACACACGTACATATACACATA [CACACA_site9275] | 7.81 ± 0.41
13 | TAACAAATATTATTTTGTACATAATATATATATATA [XGTACX_site6898] | 8.88 ± 0.54
14 | AATACACACCTGTGGGTGCTTATAATAAGCCACAAA | 10.2 ± 0.26
15 | TATTTTTTTATTTATTGTACTTTAAAAAAAATTAAA [XGTACX_site6167] | 7.97 ± 0.4
16 | ATATATTTATATTATACACACAAAAATATTTTGTAT [CACACA_site6262] | 7.61 ± 0.57
17 | TATATATATTAATTTATTTATTTGTTTATTTATTTA [CACACA_negctrl_site185] | 7.75 ± 0.53
18 | TTATAAAAATATTACGCACACACAAACTTATTCATT [CACACA_site1970] | 8.87 ± 0.042
19 | ATATAATAATATTATACATGCAAAATATGTTCTTCA [TGCATGCA_site115] | 7.83 ± 0.64

Row | Sequence | gcPBM binding intensity (ln)
20 | ATCGCATATACATTATATTTTATAATAATTATTTTT [GTGCAC_negctrl_site48] | 8.03 ± 0.48
21 | AGACTATCATTTTTTTAACACACAAAAAAAATAAAA [CACACA_site9173] | 7.86 ± 0.39
22 | TGTATACACATATGTACACACATATAGATGTATATG [CACACA_site7447] | 7.77 ± 0.14
23 | ATAATGTATATTATTGCACACATATATAAAATTATG [CACACA_site8280] | 10 ± 0.64
24 | TAAATAAATACATACACACACATACCTATATTTATA [CACACA_site7466] | 7.71 ± 0.47
25 | AATATAAATATAAATATAAATATATATATATATATA [TGCATGCA_negctrl_site603] | 9.12 ± 0.61
26 | TTTTATAAAAACAAAAACAAAGGCACTTTCTAAAGA [XGTACX_negctrl_site130] | 8.63 ± 0.28
27 | ATATAAAATATGAGTAGTACATATTTTCTCATCTTA [XGTACX_site8595] | 7.55 ± 0.38
28 | GGGAAACGATTTAATACACACACGTATTATATATAT [CACACA_site1160] | 8.48 ± 0.59
29 | CACAAAAGTAAGCACGCACACACAACATGAAATAAA [CACACA_site7938] | 8.22 ± 0.34
30 | CATTTTTTGTAAAATCGTACATATACATAAAGTGGT [XGTACX_site3423] | 7.89 ± 0.35
31 | AAAGACAAAAGGAATTGTACATAATATATAAAATAT [XGTACX_site2923] | 7.58 ± 0.71
32 | AATTTTATTTAAAGTGCATGTAAAATTAAAACTTTT [TGCATGCA_site989] | 8.88 ± 0.43
33 | TATGAATTTATCTACAACATTTGAAATAAATTAAAA [CACACA_negctrl_site79] | 7.48 ± 0.37
34 | TATTTGGGTATTTTTACACACATTAATATATATATA [CACACA_site9114] | 8.925 ± 0.049
35 | AAAGATAATAATATGCGTACATAAAAATATATGATA [XGTACX_site6884] | 7.91 ± 0.29
36 | ATAATGGAAAAAAAATATAATAATACGAAATAGGAA [TGCATGCA_negctrl_site64] | 8.06 ± 0.5
37 | TTTTTTTAATAAATTTATAACAATATGATAGGTGAC [CACACA_negctrl_site1783] | 8.21 ± 0.45
38 | TGAATCAATTGTTGCTGTACATAAGGTATACAATAA [XGTACX_site5127] | 7.97 ± 0.52

Row | Sequence | gcPBM binding intensity (ln)
39 | AGTTAAATGAATCAATACATAAATATGTATATATAT [TGCATGCA_negctrl_site539] | 8.34 ± 0.73
40 | TAATTACCATATGGTACACACATATATATCTGTATA [CACACA_site5849] | 8.01 ± 0.4
41 | AATAATATCTGAAAATGTACATTTTATTATAAACAT [XGTACX_site8441] | 7.79 ± 0.59
42 | AAGAAGAGTTATTGTAGTACATTTTTAAATGTAATA [XGTACX_site7664] | 7.73 ± 0.34
43 | AAGAATTATAGAAACACACATACATACAGACATACA [CACACA_site1943] | 7.79 ± 0.34
44 | ATGCAAACTAAAAGACGTACAGAAAAGTATCATACT [XGTACX_site8766] | 7.88 ± 0.61
45 | TGATTATTTTATATTTGTACACATATCATATAAAAA [XGTACX_site5868] | 8.1 ± 0.26
46 | ACATAATATTGAAGAAGTACAAATTTTATTTATTAT [XGTACX_site4113] | 7.68 ± 0.49
47 | ACGTTTTTGAGTAGTACACACACAATAAGGATGGAT [CACACA_site9044] | 8.36 ± 0.54
48 | TCATTATTATATAATTGTACATAATAATTATATCCA [XGTACX_site1801] | 7.62 ± 0.39
49 | AATATAATATATATTAGTACATATATATATATATAT [XGTACX_site870] | 9.3 ± 0.66
50 | CCTCATATTATAGACACACACAAAAAAAATAAAAAA [CACACA_site180] | 7.82 ± 0.44
51 | ATGTATGTGTATATATGTACATAATATATATCTTTT [XGTACX_site8666] | 7.92 ± 0.35
52 | AGTACATTATAGAATACACACCTATACATTTATATA [CACACA_site6391] | 7.71 ± 0.57
53 | ATTTTATTTTTTCACACACACATATATATATATATA [CACACA_site3334] | 9.54 ± 0.4
54 | CCCAGGAATATAAAATGTACATAAAAAATACAAATT [XGTACX_site1708] | 8.27 ± 1.4
55 | TTTTTTTTTTTTGGATGTACTTAATGAAAATGTTAC [XGTACX_site8980] | 8.09 ± 0.52
56 | TAAGCACAAGCACAAGCACACATTTATATATATATA [CACACA_site883] | 9.13 ± 0.042
